This note sets out measurements from publication PMC6919601, “Identification of Plasmodium dipeptidyl aminopeptidase allosteric inhibitors by high throughput screening” (PLoS ONE, 2019).

Values joined by “and” are separate entries in the source; they are usually repeats but may differ in a detail not shown here. Equal values may be shown once. Screen size: about 110,000 compounds; about 230 (0.21%) showed an effect of 50% or more. The list shows a part of the results.
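Further: 30 min substrate incubation versus DMSO and 10 µM JCP410 controls.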

DPAP1, sequence (Q8IIJ9 whole entry, looked up): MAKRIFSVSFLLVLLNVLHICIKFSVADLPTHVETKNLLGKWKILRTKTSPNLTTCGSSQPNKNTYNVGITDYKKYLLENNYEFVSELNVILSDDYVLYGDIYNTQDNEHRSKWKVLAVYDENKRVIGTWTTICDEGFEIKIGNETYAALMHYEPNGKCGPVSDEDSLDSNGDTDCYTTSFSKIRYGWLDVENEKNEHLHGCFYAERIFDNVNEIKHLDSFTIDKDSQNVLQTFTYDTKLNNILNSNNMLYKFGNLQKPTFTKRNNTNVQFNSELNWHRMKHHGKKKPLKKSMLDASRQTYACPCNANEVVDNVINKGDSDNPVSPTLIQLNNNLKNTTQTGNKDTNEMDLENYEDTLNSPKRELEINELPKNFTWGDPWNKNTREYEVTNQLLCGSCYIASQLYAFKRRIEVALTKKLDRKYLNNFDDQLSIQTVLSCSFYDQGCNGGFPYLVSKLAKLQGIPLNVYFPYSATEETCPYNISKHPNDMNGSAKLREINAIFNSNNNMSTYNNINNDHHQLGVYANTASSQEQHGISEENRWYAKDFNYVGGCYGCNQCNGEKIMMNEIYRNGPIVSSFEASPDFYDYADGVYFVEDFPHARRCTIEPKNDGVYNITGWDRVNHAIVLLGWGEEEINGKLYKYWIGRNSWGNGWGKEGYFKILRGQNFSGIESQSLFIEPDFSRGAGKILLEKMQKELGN

The assay addresses DPAP1 (Plasmodium falciparum, UniProt Q8IIJ9). In words: primary screen, percent inhibition; read by cleavage of a fluorogenic dipeptide substrate; higher = more effect of the substance. Further details: species or system P. falciparum D10 trophozoite lysates; single well.
`Cc1onc(-c2ccccc2)c1C(=O)N1CCN(c2ccc(Cl)cc2)CC1`: the “% Inhibition @ 10 uM” value is on record as 6.06%. As to `CC1(C)[C@H]2CC=C(CN(CCO)CCO)[C@@H]1C2`, the “% Inhibition @ 10 uM” value is on record as -5.65%.

Take `C=CCNc1ncnc2sc(C)c(C)c12`: the “% Inhibition @ 10 uM” value is -2.72%.

Take `Cc1ccc(NC(=O)c2c(-c3ccccc3)noc2C)nc1`: the “% Inhibition @ 10 uM” value was determined as 5.42%. Next, `COCCCN(Cc1ccco1)C(=O)CSc1nc2cccnc2[nH]1`: -0.0309%. Next, `O=C(NCc1ccco1)c1ccc(CN2CC(=O)N3CCCCC3C2=O)cc1` (stereo not drawn): 3.7%; `CC1CCc2c(C(=O)NCCCSC3CCCCC3)csc2C1` (stereo not drawn): -1.44%.

On to `COc1cc(/C=C2\NC(=O)NC2=O)cc(OC)c1OC`, for which the “% Inhibition @ 10 uM” value came to 1.88%. With `Cc1nc2cc(NC(=O)N3CCC(c4ccccc4)C3)ccc2n1C` (stereo not drawn) the figure was -4.39%; with `Cc1ccc2c(c1)c1c(c(=O)n(Cc3ccccc3)c(=O)n1C)n2C`, 7.06%; with `COc1ccc(/C=C2/C(=O)N(c3ccc([N+](=O)[O-])cc3)N=C2C)cc1OC`, -6.52%. With `N#CCCN1CCN(c2ccc(F)cc2)CC1` the figure was 3.8%. In the case of `O=C(NCC(c1ccccc1)c1ccccc1)Nc1ccc(Cl)c(Cl)c1`, the “% Inhibition @ 10 uM” value is -9.55%. With `C=CCn1c(SCC(=O)NCCc2ccccc2)nc2c1c(=O)n(C)c(=O)n2C`, the “% Inhibition @ 10 uM” value was -4.49%. With `CCOc1ccc(NS(=O)(=O)c2ccc(NC(=O)c3ccccc3Br)cc2)cc1` the figure was 4.57%. Consider `Cc1ccc(C)c(Cn2c(CCNC(=O)C(C)C)nc3ccccc32)c1`, for which the “% Inhibition @ 10 uM” value is -3.52%. Turning to `O=C(c1ccccc1)c1ccc(NC(=O)C2CCCC2)cc1`, the “% Inhibition @ 10 uM” value is reported as -2.74%. With `COc1ccc(NS(=O)(=O)c2ccc(NC(=O)COc3cccc4ccccc34)cc2)cc1` the figure was -2.28%; with `COc1cccc(/C=C2\N=C(c3ccc(F)cc3)OC2=O)c1`, -7.16%; with `CCCCOc1ccc(C(=O)NCCc2csc3nc(-c4ccc(OC)cc4)nn23)cc1`, 2.59%.

For `CN(Cc1ccco1)C(=O)c1cc2c(Cl)nc3ccccc3c2s1`, the “% Inhibition @ 10 uM” value is reported as 1.66%. In the case of `Cc1cc(O)c(C2=NCCSC(c3cccnc3)C2)c(=O)o1` (stereo not drawn), the “% Inhibition @ 10 uM” value worked out at 4.89%. On to `Cc1cccc(NC(=O)CN2C(=O)N/C(=C\c3ccc(-c4cccc(C(=O)O)c4)o3)C2=O)c1`, for which the “% Inhibition @ 10 uM” value was 2.86%. With `CSc1nn(Cc2ccccc2)c(NC(C)=O)c1S(=O)(=O)c1ccccc1` the figure was -4.17%; with `CCc1nnc(NS(=O)(=O)c2ccc(NC(=S)NC(=O)c3ccco3)cc2)s1`, 6.3%.

For `Cc1nn(CCO)c2c1[C@H]1[C@@H](C2)C1(C)C`, the “% Inhibition @ 10 uM” value is recorded as 4.32%. Take `Cc1ccc(-c2csc3ncnc(Cl)c23)cc1`: the “% Inhibition @ 10 uM” value was 5.63%. Next, `COc1ccc(/C=N/c2nc3ccccc3n2Cc2ccccc2)cc1OC`: 22.5%; `CCS(=O)(=O)c1nc(S(=O)(=O)c2ccc(C)cc2)c(NCc2ccccc2OC)s1`: -2.25%. Regarding `OCC1CCCN1Cc1cccc2ccccc12` (stereo not drawn), the “% Inhibition @ 10 uM” value was -7.18%. Next, `Cc1ccccc1C1=N/C(=C/c2ccccc2F)C(=O)O1`: 1.25%; `Cc1ccc(C(C)NC(=O)Nc2ccccc2)cc1` (stereo not drawn): 0.968%; `O=C(c1ccccc1)N1CCN(CCN2C(=O)c3cccc4cccc(c34)C2=O)CC1`: 7.74%. With `Cn1cnc2nc(SCC(=O)O)nc(N)c21` the figure was -10.8%; with `Cc1ccc(/C=C(\NC(=O)c2ccccc2)C(=O)NCc2ccccc2C(F)(F)F)o1`, 5.67%. With `Cc1ccc(-n2nc(C)c(/C=N/c3c(C)nn(C)c3C)c2O)c(C)c1` the figure was -1.84%; with `Cc1csc(NC(=O)CCc2nnc3ccc(N4CCC(C)CC4)nn23)n1`, -2.26%; with `CCOC(=O)NC1(C(F)(F)F)C(=O)NC(C)=C1C(=O)OC` (stereo not drawn), 0.221%.

Regarding `Cc1ccccc1CNCC1CCCO1` (stereo not drawn), the “% Inhibition @ 10 uM” value is listed as -1.38%. Regarding `CCC(=O)Nc1ccc(S(=O)(=O)NC2CCCCC2)cc1`, the “% Inhibition @ 10 uM” value is recorded as -3.49%. With `CCOC(=O)N1CCN(C(=O)c2ccc(CS(=O)Cc3ccc(C)cc3)o2)CC1` (stereo not drawn) the figure was -7.62%.

In the case of `O=C(Nc1ccccc1[N+](=O)[O-])C(c1ccccc1)c1ccccc1`, the “% Inhibition @ 10 uM” value is given as 1.38%. Take `Cc1nn(C(=O)CCC(=O)NC2CCCc3ccccc32)c2ccccc12` (stereo not drawn): the “% Inhibition @ 10 uM” value was -6.6%. With `O=[N+]([O-])c1ccc(Nc2ccc(Cl)c(C(F)(F)F)c2)c2nonc12` the figure was -0.856%.

As for `CCOC(=O)N1CCN(C(=O)COc2ccc(S(=O)(=O)NC(C)C)cc2)CC1`, the “% Inhibition @ 10 uM” value turned out to be 0.64%. With `CCCCCCOc1ccccc1/C=c1/sc2nc(=O)c(C)nn2c1=O` the figure was -3.33%; with `CCC(Sc1nc2ccccc2c2nc3ccccc3n12)C(=O)NCc1ccco1` (stereo not drawn), -2.56%; with `Cc1nn(Cc2ccc(F)cc2)c(C)c1NC(=O)c1c(-c2ccccc2)noc1C`, -0.884% and -2.07%. Next, `COc1ccc(-c2csc(/C(C#N)=C/c3ccc(Br)o3)n2)cc1`: 0.912%; `CC1CCN(C(=O)c2cc(-c3ccco3)on2)CC1`: -1.84%; `COc1cccc(C(=O)Nc2cccc(-c3csc(C)n3)c2)c1`: 3.41%. Next, `COc1cccc(C2C3=C(O)CC(C)(C)CC3=NC(C)=C2C(=O)Nc2ccc(Br)cn2)c1` (stereo not drawn): 1.4%; `Cc1oc2c(c(C)cc3oc(=O)cc(C)c32)c1-c1ccccc1`: -2.92%; `COc1ccc(/C=C(\C#N)c2nc(-c3ccc(F)cc3)cs2)cc1`: 3.83%. Consider `Cc1ccc(/C=C2\C(=N)N3N=C(N4CCC(C)CC4)SC3=NC2=O)cc1`, for which the “% Inhibition @ 10 uM” value came to 3.32%. For the compound `O=C(c1cc(-c2ccc(O)cc2)on1)N1CCN(C(c2ccccc2)c2ccccc2)CC1`, the “% Inhibition @ 10 uM” value came to 2.65%. For the compound `COCCn1c(-c2ccc(F)cc2)cnc1NCc1ccccc1`, the “% Inhibition @ 10 uM” value worked out at 2.31%. On to `Cc1nn(C)cc1CNC(=O)c1cnn2c(C(F)(F)F)cc(-c3ccc(Br)cc3)nc12`, for which the “% Inhibition @ 10 uM” value is on record as -3.87%. For the compound `CC(C)c1ccc(C(=O)CN(C)C)cc1`, the “% Inhibition @ 10 uM” value is given as 0.135%. With `O=C(Nc1ccc(Cl)cc1)N1CCCCCC1` the figure was -3.23%; with `Cc1cccc(NC(=O)COc2ccc(Cl)cc2)n1`, 16.8%; with `CC1=C(C#N)C(=O)N(CC(C)O)C(=O)/C1=C/c1ccc(-c2ccc(C(=O)OC(C)C)cc2)o1` (stereo not drawn), 0.884%. Next, `Cc1cccc2c1-c1sc(C(=O)NC3CCN(Cc4ccccc4)CC3)cc1CO2`: 1.89%. In the case of `COC(=O)c1cc(O)c2c(-c3ccccc3)nc(C)nc2n1`, the “% Inhibition @ 10 uM” value amounted to 3.25%. With `Cc1cccc(Oc2nc3c(C)cccn3c(=O)c2/C=C(\C#N)C(=O)NCc2ccccc2)c1C` the figure was 0.101%; with `CCCCCC(=O)Nc1ccc(OC)c(OC)c1`, 5.9%.

Consider `CCOC(=O)c1cc(-c2ccc(F)cc2)n(CC(=O)NCc2cccnc2)c1C`, for which the “% Inhibition @ 10 uM” value is listed as -3.64%. As for `Cc1onc(-c2ccccc2)c1C(=O)Nc1ccc(S(N)(=O)=O)cc1`, the “% Inhibition @ 10 uM” value is listed as 1.15%. Next, `CC(C)CN(CCNC(=O)[C@H](CC1CCCCC1)NC(=O)OC(C)(C)C)CC(C)C`: -1.83%; `COc1ccc(C2=NC(=O)OC2(C)C)cc1OC`: -0.0619%. As for `COc1ccccc1N1CCN(C(=O)/C(=C/c2ccccc2)NC(=O)c2ccccc2)CC1`, the “% Inhibition @ 10 uM” value stood at 4.09%. For `Cc1ccc(C(C(=O)NC2CCCCC2)N(C)C)cc1` (stereo not drawn), the “% Inhibition @ 10 uM” value is given as -2.04%.

Regarding `OC1CCCN(C2C3CC4CC(C3)CC2C4)C1` (stereo not drawn), the “% Inhibition @ 10 uM” value was found to be 3.48%.

As for `COc1cc2c(cc1OC)CN(C)CCc1cc3c(cc1C(=O)C2)OCO3`, the “% Inhibition @ 10 uM” value is listed as -1.66%. Regarding `O=C1CC(c2ccc(F)cc2)Cc2nc(N3CCOCC3)ncc21` (stereo not drawn), the “% Inhibition @ 10 uM” value came to 3.53%. Next, `O=C(CCn1ccc2cc(S(=O)(=O)N3CCCC3)ccc21)NC1CCN(Cc2ccccc2)CC1`: -4.19%; `CCCOc1ccc(N2C(=O)CC(N3CCN(c4ccccc4)CC3)C2=O)cc1` (stereo not drawn): -1.38%; `N#Cc1sc2nc3c(cc2c1N)CCCCC3`: 2.08%.

With `CCOP(=O)(/C(=C(\NC(=O)c1ccccc1)C(=O)O)c1ccccc1)c1ccccc1` (stereo not drawn), the “% Inhibition @ 10 uM” value was -2.59%. In the case of `Cc1cc(C)c2c(n1)SCC(=O)N2CC(=O)NCc1ccccc1C`, the “% Inhibition @ 10 uM” value is reported as -4.15%.

Turning to `CC(=O)N1CCN(Cc2cc(F)ccc2F)CC1`, the “% Inhibition @ 10 uM” value is given as -1.75%.

As to `N#Cc1c(-c2ccc(O)cc2)c(C#N)c2nc3ccccc3n2c1N`, the “% Inhibition @ 10 uM” value is 4.42%. Regarding `CC(=O)N1CCC2(CC1)OC(=O)C(C)=C2C(=O)NCCCc1ccccc1`, the “% Inhibition @ 10 uM” value is listed as -4.67%.

As for `COCC(C)NC(C)Cc1ccccc1F` (stereo not drawn), the “% Inhibition @ 10 uM” value is -0.505%. With `CC(C)CNC(=O)c1cc(-c2ccco2)nc2ccccc12` the figure was 4.83%; with `Cc1cncn1CCc1nc2c3ccccc3nc(SCC(=O)c3ccc(F)cc3)n2n1`, 4.31%. Consider `COc1cc(/C=C2/NC(=O)N(Cc3ccccc3)C2=O)cc(Cl)c1OC`, for which the “% Inhibition @ 10 uM” value is -14.4%. Consider `CCOc1ccc(CNS(=O)(=O)c2c(C)nc3scc(C)n3c2=O)cc1OC`, for which the “% Inhibition @ 10 uM” value stood at 4.61%. With `COc1ccc(Br)cc1C1CC(=O)NC2=C1C(=O)CCC2` (stereo not drawn) the figure was 6.91%; with `CN(C)c1cc[n+](CN2C(=O)c3ccccc3C2=O)cc1`, -0.725%. Consider `CCCOc1ccc(C(O)CCNC(CC(C)C)C(=O)O)cc1` (stereo not drawn), for which the “% Inhibition @ 10 uM” value came out at 2.01%.

Regarding `N#CCCN(C1CCCCC1)S(=O)(=O)c1cccc2nsnc12`, the “% Inhibition @ 10 uM” value is 3.32%. Take `Cc1ccc(S(=O)(=O)c2nnn3c2nc(NC(C)C)c2sccc23)cc1C`: the “% Inhibition @ 10 uM” value is 4.58%. Next, `Cn1ncc2c(N3CCN(C(c4ccccc4)c4ccccc4)CC3)ncnc21`: -1.79%; `CCOc1cc2sc(N3CCC(C(=O)NCCCOC(C)C)CC3)nc2cc1Br`: 47.4%; `COc1cc2nc(SCC(=O)N(C)C3CCCCC3)n3nc(C)nc3c2cc1OC`: 4.51%.

In the case of `C=CCN1C=CC(=Cc2sc3ccccc3[n+]2CC)C=C1`, the “% Inhibition @ 10 uM” value is given as -2.91%. With `c1cncc(-c2nn3c(C4COc5ccccc5O4)nnc3s2)c1` (stereo not drawn) the figure was 2.89%. Next, `CC(C)[C@@H](NC(=O)OCc1ccccc1)C(=O)OCC#N`: -6.56%.
